Data taken from PubChem BioAssay (Tox21).
Several values for one entry are separate records, joined by “and”; a condition that tells them apart may be missing. Equal entries are not always repeated. The inconclusive results got no clear call from the source; some entries with a clear call stand among them for comparison. Potencies of inconclusive entries are doubtful fits and often do not repeat. Activity calls are given as the source filed them. Unless noted, the call rests on the fitted dose curve; in most records, active means well fitted cell-killing curve with a large enough effect in the repeat runs; inconclusive means weak or mixed curves, or effect the other way; inactive means flat fitted curve, though single readings scatter.

Tested on: not listed separately
Experiment: qHTS assay to identify small molecule that activate the aryl hydrocarbon receptor (AhR) signaling pathway - cell viability counter screen (AID 743086); further: nearly all actives have a fitted effect of over 45% in size
Settings: HepG2-AhR-luc viability, CellTiter-Fluor, 24 h; series mostly up to 70.3 µM; viability change, negative = cytotoxic: at the top concentration
Summary of the method: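 Cytotoxicity counter screen: CellTiter-Fluor signal (30 min, 37 C) in 4000 HepG2 cells/well carrying the DRE-luciferase reporter, following 24 h compound exposure at 37 C.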
Potency means the concentration at half of the fitted maximal effect; tags describe the fitted curve by direction and shape or compound fluorescence and quenching.

| SMILES | Potency |
| --- | --- |
| Nc1ccc(N)cc1 | inconclusive: 38.7 µM [falling, partial curve, poor fit] and inconclusive: 54.5 µM [falling, partial curve, poor fit] |
| O=[Se]=O | inconclusive: 30.4 µM [falling, partial curve] |
| C[C@@H]1CC[C@H]2[C@@H](C)C(=O)O[C@@H]3O[C@@]4(C)CC[C@@H]1[C@]32OO4 | inconclusive: 26.6 µM [falling, partial curve] |
| CCC(=O)C(CC(C)N(C)C)(c1ccccc1)c1ccccc1 (stereo unspecified) | inconclusive: 60.7 µM [falling, partial curve] and inconclusive: 37 µM [falling, partial curve] |
| O=c1oc2ccccc2c(O)c1Cc1c(O)c2ccccc2oc1=O | inconclusive: 5.07 µM [rising, partial curve, poor fit] |

Molecular target: Peroxisome proliferator-activated receptor gamma (Homo sapiens) (UniProt P37231)
Chain of UniProt P37231 (P37231 whole entry, looked up): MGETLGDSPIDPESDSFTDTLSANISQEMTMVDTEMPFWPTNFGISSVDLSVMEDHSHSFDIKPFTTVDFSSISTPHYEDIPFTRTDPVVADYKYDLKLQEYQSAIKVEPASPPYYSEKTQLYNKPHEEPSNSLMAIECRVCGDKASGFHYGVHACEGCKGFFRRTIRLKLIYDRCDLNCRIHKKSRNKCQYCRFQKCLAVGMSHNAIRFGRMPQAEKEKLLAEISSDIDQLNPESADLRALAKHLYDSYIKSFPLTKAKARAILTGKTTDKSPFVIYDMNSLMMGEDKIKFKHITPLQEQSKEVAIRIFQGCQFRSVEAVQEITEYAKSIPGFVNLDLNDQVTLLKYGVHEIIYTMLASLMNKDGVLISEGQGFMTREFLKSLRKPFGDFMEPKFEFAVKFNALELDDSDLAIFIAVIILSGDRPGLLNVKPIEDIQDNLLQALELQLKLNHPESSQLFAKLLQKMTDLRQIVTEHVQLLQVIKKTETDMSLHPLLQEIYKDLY
Experiment: qHTS assay to identify small molecule agonists of the peroxisome proliferator-activated receptor gamma (PPARg) signaling pathway (AID 743094; active means well fitted activation curve with a large enough effect in the signal ratio in the repeat runs, not every such curve was filed as active; inconclusive means weak or mixed curves, or effect the other way; inactive means no such curve, though single readings can be large or run the other way; the % refers to the signal ratio; on activation: on the % scale 0 is the no-effect control and ±100 the full control effect)
Settings: HEK293H PPARg-UAS-bla, beta-lactamase FRET ratio, 17 h; activation: at 57 µM (top of the series) unless noted
Summary of the method: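 Quantitative HTS agonist mode: stable HEK293H line with UAS-beta-lactamase reporter under PPARg control, 17 h compound exposure at 37C, fluorescence after 1 h FRET substrate loading at room temperature.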

| SMILES | Potency | activation |
| --- | --- | --- |
| O=[Se]=O | inconclusive: 27.4 µM |  |
| CCC(=O)C(CC(C)N(C)C)(c1ccccc1)c1ccccc1 (stereo unspecified) |  | inconclusive: -15.1% |
| COC(=O)Nc1nc2ccccc2[nH]1 |  | inconclusive: -5.94% |
| CCN(CC)C(=S)[S-].CCN(CC)C(=S)[S-].[Zn+2] | inconclusive: 6.11 µM [fluorescent, partial curve] |  |
| C#C[C@]1(O)C=C[C@H]2[C@@H]3CCC4=CC(=O)CC[C@@H]4[C@H]3CC[C@@]21CC |  | inconclusive: 2.22% |
| BrCC(Br)C1CCC(Br)C(Br)C1 (stereo unspecified) |  | inactive: -8.45% |
| Cc1cc(Cl)ccc1OCC(=O)O | inconclusive: 43.4 µM [activator, single point] | inconclusive: 1.27% |
| CC(C)(C)C(O)C(Oc1ccc(Cl)cc1)n1cncn1 (stereo unspecified) | inconclusive: 24.5 µM [partial curve, poor fit] |  |
| Fc1ccc(Oc2ccnc3cc(Cl)cc(Cl)c23)cc1 | active: 43.6 µM |  |
| O=c1oc2ccccc2c(O)c1Cc1c(O)c2ccccc2oc1=O |  | inconclusive: 0.197% [at 26.2 µM] |
